For four molecules, TGI and GI50 results are on record in PubChem BioAssay (NCI).

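Step 1: Grow cells in 96-well plates. Step 2: Expose to compound for 48 hours at 5 concentrations. Step 3: Interpolate endpoints linearly; if unreached, use highest concentration. Abbreviation: GI50, concentration required for 50% inhibition of growth.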 A number of entries come with more than one value. They are shown here; other results are not. The source may hold further records. For some of these results: Results that share an entry are repeats (runs, samples, wells, individuals or studies). Marks in square brackets tell the records apart. A, B and so on number the origins entry by entry.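 TGI: total growth inhibition.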 For some of these results: A record mostly stands for its own series of concentrations, not given here; some values may only mark the edge of a range. A value given as a limit tells only on which side of the number the result lay.

Common to all, as to assay: NCI-60 cell line screen, 48 h
Assay [1] has as its system HS 578T breast.
In assay [2] the test system is CAKI-1 renal.
Assay [3] relates to UO-31 renal.
Assay [4] concerns IGROV1 ovarian.
The subject of assay [5] is HL-60(TB) leukemia.
Assay [6] relates to RPMI-8226 leukemia.
For assay [7], the system named is K-562 leukemia.
The test system of assay [8] is HOP-62 NSCLC.
The test system of assay [9] is TK-10 renal.
Assay [10] concerns KM12 colon.
In assay [11] the test system is 786-0 renal.
The subject of assay [12] is SN12C renal.
Assay [13] concerns MOLT-4 leukemia.
For assay [14], the system named is NCI-H460 lung.
The subject of assay [15] is OVCAR-5 ovarian.
Assay [16] concerns MDA-MB-231 breast.
For assay [17], the system named is MALME-3M melanoma.
The test system of assay [18] is UACC-257 melanoma.
In assay [19] the test system is SNB-78 CNS.
Assay [20] has as its system PC-3 prostate.
Assay [21] has as its system SK-MEL-2 melanoma.
In assay [22] the test system is NCI-H23 lung.
Assay [23] deals with BT-549 breast.
Assay [24] concerns SNB-75 CNS.
Assay [25] has as its system EKVX NSCLC.

As for `COc1cc2cc(C(=O)N3C[C@H](CCl)c4c3cc(N)c3ccccc43)[nH]c2c(OC)c1OC`, the TGI in [1] is 1.8 µM and > 50 µM.
In the case of `COc1cc2ncnc(Nc3ccc(F)c(Cl)c3)c2cc1NC(=O)/C=C/CN1CCCCC1`, the GI50 in assay [2] was 14.3 nM [sample A, 1 test] and 257 nM [sample B, mean of 2 tests]; in assay [3] it was 543 nM [sample A, mean of 2 tests] and 26.2 nM [sample B, mean of 2 tests]; in [4] it was 342 nM [sample A, 1 test] and 11.7 nM [sample B, mean of 2 tests].
For `C=CC(=O)Nc1cc2c(Nc3ccc(F)c(Cl)c3)ncnc2cc1OCCCN1CCOCC1`, in assay [2], the GI50 was 62.3 nM [sample A, mean of 2 tests] and 756 nM [sample B, mean of 2 tests].
Turning to `C/C=C1\NC(=O)[C@H]2CSSCCC=C[C@H](CC(=O)N[C@H](C(C)C)C(=O)N2)OC(=O)[C@H](C(C)C)NC1=O`, the TGI in assay [5] is 2.26 nM [sample A, mean of 10 tests] and < 44.1 nM [sample A, mean of 2 tests] and 1.19 µM [sample B, 1 test]; in assay [6], 2.71 nM, 73.8 nM [sample A] and 128 nM [sample B]; in assay [7], 97.8 nM [sample A, mean of 6 tests] and 24.3 nM [sample A, mean of 9 tests] and 1.01 µM [sample B, 1 test]; in assay [8], 39.3 nM, < 25.9 nM [sample A] and 1.13 µM [sample B]; in assay [9] it was 25.8 nM, 113 nM [sample A] and < 10 nM [sample B]; in [10], 4.14 nM, 111 nM [sample A] and < 10 nM [sample B]. The TGI was 92.2 nM [sample A, mean of 10 tests] and 373 nM [sample A, mean of 4 tests] and 2.69 µM [sample B, mean of 2 tests] in assay [11]; 6.69 nM, 28.5 nM [sample A] and 362 nM [sample B] in [12]; 15.5 nM, 47 nM [sample A] and 186 nM [sample B] in assay [13]; 31.6 nM, 51.4 nM [sample A] and 1.2 µM [sample B] in assay [14]; < 13.3 nM [sample A, mean of 4 tests] and 0.559 nM [sample A, mean of 7 tests] and 470 nM [sample B, mean of 2 tests] in assay [15]; 7.13 nM, < 37.6 nM [sample A] and 85.4 nM [sample B] in [16]. Also, the TGI is 57.3 nM [sample A, mean of 6 tests] and 0.0258 nM [sample A, mean of 7 tests] and 944 nM [sample B, mean of 2 tests] in assay [17]; 54.3 nM [sample A, mean of 6 tests] and 3.11 nM [sample A, mean of 9 tests] and < 10 nM [sample B, mean of 2 tests] in assay [18]; 99.2 nM and 1.03 µM in assay [19]; 51.6 nM, < 39.1 nM [sample A] and 1.19 µM [sample B] in [20]; 28.9 nM, 68.8 nM [sample A] and 987 nM [sample B] in assay [3]; 2.24 nM [sample A, mean of 9 tests] and 241 nM [sample B, mean of 2 tests] in assay [4]. Besides, the TGI is 40.5 nM [sample A, mean of 5 tests] and 0.855 nM [sample A, mean of 9 tests] and < 10 nM [sample B, mean of 2 tests] in assay [21]; 5.08 nM, 164 nM [sample A] and 126 nM [sample B] in assay [22]; 209 nM [sample A, mean of 2 tests] and 0.156 nM [sample A, mean of 6 tests] and 243 nM [sample B, mean of 2 tests] in assay [23]; 31.9 nM, 440 nM [sample A] and 1.61 µM [sample B] in assay [24]; 85.5 nM, 728 nM [sample A] and 1.68 µM [sample B] in assay [25].
